Out of some 360,000 compounds screened, about 11,000 (3.1%) were called active. The inconclusive results got no clear call from the source; some entries with a clear call stand among them for comparison. The call rests on the fitted dose curve; in most records, active means well fitted inhibition curve with a large enough effect; inconclusive means small, poorly fitted or top-dose-only effect; inactive means no such curve, though single readings can be large or run the other way. No potency is given beside an inconclusive call; the fits are too rough.
molecular target: Schistosoma mansoni thioredoxin glutathione reductase (TGR) (UniProt Q962Y6); assay: qHTS Assay for the Inhibitors of Schistosoma Mansoni Peroxiredoxins; conditions: purified TGR, DTNB reduction, TNB absorbance 405 nm; series mostly up to 114 µM; further: nearly all actives have a fitted effect of over 60% in size
How it was run: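 TGR 20 nM + NADPH 100 uM (dispensed conc.), cpd preinc 15 min RT; start with NADPH (500 uM addition) then DTNB (15 mM addition). Kinetic TNB absorbance, 405 nm filter. Four-parameter Hill fit across titration.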
Potency means the concentration at half of the fitted maximal effect; tags describe the fitted curve by direction and shape.

Row | SMILES | Potency
1 | O=C(NCc1ccccc1)c1ccc(CS(=O)Cc2ccc(Cl)cc2)o1 (stereo not given) | inconclusive [inhibitor, partial curve]
2 | Nc1ccccc1C(=O)N1CCc2ccccc21 | inactive
3 | CCCCCCSC1=C(C#N)C(c2ccc(C)o2)CC(=O)N1 (stereo not given) | active: 44.7 µM
4 | O=C(O)CCc1ccc(-c2cccs2)n1Cc1ccco1 | inconclusive [inhibitor, partial curve]
5 | CC(C)C1=NOC(C(=O)N2CCC(N3CCC(C(=O)N4CCOCC4)CC3)CC2)C1 (stereo not given) | inconclusive [inhibitor, partial curve]
6 | O=C(Cn1c(=O)c2cccn2c2ccccc21)NCCc1ccc(Cl)cc1 | inactive
7 | CC(C)Oc1cccc(C(=O)NC(=S)Nc2cccnc2)c1 | inconclusive [inhibitor, partial curve]
8 | CCCCN1C(=O)C2Cc3c([nH]c4ccccc34)CN2C1=S (stereo not given) | inconclusive [inhibitor, partial curve]
9 | COC(=O)/C(=C\c1ccc([N+](=O)[O-])o1)NC(=O)c1ccccc1 | inconclusive [inhibitor, partial curve]
10 | O=C(CCN1CCOCC1)Nc1cc(C(=O)Nc2ccccc2F)ccc1N1CC2CC(C1)c1cccc(=O)n1C2 (stereo not given) | inconclusive [inhibitor, partial curve]
11 | CC1CC(=O)N(CC(=O)Nc2ccc(F)cc2F)c2ccccc2S1 (stereo not given) | inactive
12 | CN(CCc1ccccn1)C(=O)CCC1CCCN(C(=O)c2c3c(nn2C)CCCC3)C1 (stereo not given) | inactive
13 | O/C=c1\ccc2cccc3nc(C(F)(F)F)nc1c23 | active: 3.16 µM
14 | CCN(C(=O)c1nn(-c2ccc(C)cc2)c(=O)c2c1c1ccccc1n2C)c1ccc(F)cc1 | inactive
15 | Nc1c(N(CCO)C(=O)/C=C/c2ccco2)c(=O)[nH]c(=O)n1Cc1ccccc1 | active: 50.1 µM
16 | Cc1ccc2c(c1)C(=C(C#N)C#N)C(=O)N2CCN1CCOCC1 | active: 3.16 µM
17 | O=C(NCC(=O)N(Cc1cccs1)C(C(=O)NC1CCCCC1)c1ccco1)c1ccco1 (stereo not given) | inconclusive [inhibitor, single point]
18 | CC(C)(C)NC(=O)C(c1ccncc1)N(C(=O)CNC(=O)c1ccco1)c1ccc2c(c1)OCO2 (stereo not given) | inconclusive [inhibitor, partial curve]
19 | O=C(NCCCN1CCCC1)c1ccc2c(Cl)c3c(nc2c1)CCCC3 | inconclusive [inhibitor, full curve, poor fit]
20 | Cc1ccc(C)n1-c1ccc(-c2nnco2)cc1 | inconclusive [inhibitor, full curve]
21 | C#Cc1ccc([C@H]2C=C(C(=O)N3CCN(Cc4ccccc4)CC3)O[C@@H](OCc3ccc(CO)cc3)C2)cc1 | active: 44.7 µM
22 | CCn1c(=S)sc2c(=O)n(-c3ccccc3)c(=S)[nH]c21 | active: 22.4 µM
23 | COC(=O)C1=C(C(=O)OC)C(c2ccc(OC)c(OC)c2)c2sc(=O)[nH]c2S1 (stereo not given) | inconclusive [inhibitor, partial curve]
24 | O=C(c1cccc(F)c1)N1CCC(c2c[nH]c3ccccc23)(c2c[nH]c3ccccc23)CC1 | inactive
25 | CC(C)c1ccc(/C=C/C(=O)N2CCOCC2)cc1 | inactive

Row | SMILES | Potency
26 | CC1=CC(=O)C(C(C)C)=CC1=NC(=O)c1ccc(C)cc1 | active: 3.16 µM
27 | O=[N+]([O-])c1cccc(/C=N/n2c(COc3ccccc3)n[nH]c2=S)c1 | inconclusive [inhibitor, full curve, poor fit]
28 | CCCc1n(CC(O)COC2CCCCC2)c2ccccc2[n+]1C (stereo not given) | inactive
29 | CCNC(=O)C(=O)NCC(c1ccc2c(c1)OCO2)N1CCOCC1 (stereo not given) | inactive
30 | O=C(O)CCSc1ncnc2sc(-c3ccccc3)cc12 | inconclusive [inhibitor, partial curve]
31 | O=C(c1ccco1)N1CCC(c2ccccc2)C1 (stereo not given) | inconclusive [inhibitor, single point]
32 | NS(=O)(=O)c1ccc(CCNC(=S)Nc2ccc(S(N)(=O)=O)cc2)cc1 | inconclusive [inhibitor, partial curve]
33 | O=C(CC1N=C2c3ccccc3N=C(SCc3ccccc3Cl)N2C1=O)NCc1cccs1 (stereo not given) | inactive
34 | COc1ccc(-c2c3c(nc4sc(C(=O)Nc5cc(C)on5)c(N)c24)CCC3)cc1 | inactive
35 | NC(=O)c1sc2nc(-c3ccco3)ccc2c1N | inconclusive [inhibitor, single point]
36 | C/C(=N\NC(=S)NC(C)C)c1ccco1 | active: 3.98 µM
37 | Cc1onc(-c2ccccc2Cl)c1C(=O)Nc1ncn[nH]1 | inactive
38 | Cc1cc(NC(=O)CSc2nc3c(c(=O)n2-c2ccccc2)SC(C)C3)no1 (stereo not given) | inactive
39 | O=C1NN(c2cccc(Br)c2)C(=O)/C1=C\c1ccccc1 | active: 50.1 µM
40 | CC(=O)c1ccc(S(=O)(=O)NCC(=O)N2CCN(C/C=C/c3ccccc3)CC2)cc1 | active: 7.94 µM
41 | Cn1c(-c2ccc(S(=O)(=O)N3CCCC3)cc2)csc1=Nc1ccc(Cl)c(Cl)c1 | active: 8.91 µM
42 | COc1ccc(N/C=C/C(=O)c2ccc(Oc3ncccn3)cc2)cc1 | inactive
43 | O=C(CCN1CCCC1Cc1ccccc1)c1ccc2c(c1)OCCO2 (stereo not given) | active: 0.316 µM
44 | O=C(NCc1ccco1)/C(=C\c1ccc(F)cc1)NC(=O)c1ccco1 | active: 31.6 µM
45 | CN(C)c1cccc2c1c(NC(=O)Nc1ccccc1)nn2C | inconclusive [inhibitor, partial curve]
46 | COc1ccc(/C(N)=N/OC(=O)C2CCCCC2)cc1OC | inactive
47 | O=C(Nc1ccccc1)Nc1n[nH]c2nnc(-c3ccccc3)c(-c3ccccc3)c12 | inactive
48 | C=CCOc1ccc(/C(O)=C2\C(=O)C(=O)N(CCCOC)C2c2ccncc2)cc1 (stereo not given) | inconclusive [inhibitor, partial curve]
49 | CC(C)OC(=O)CN1C(=O)S/C(=C/c2ccc(N3CCCCC3)o2)C1=O | active: 6.31 µM
50 | CC(C)(C)OC(=O)N1CC=C2C(C#N)=C(N)C(C#N)(C#N)C(c3cccs3)C2C1 (stereo not given) | inconclusive [inhibitor, full curve]

From PubChem BioAssay AID485364 (National Center for Advancing Translational Sciences (NCATS), 2010)
